Consider 115 sequences from the BET-seq Pho4 binding data (Le et al. 2018).

This is one part of the list. These are noisy estimates, calculated here from bound and input reads.

The assay deals with T1, Pho4 (S. cerevisiae) (UniProt P07270).
T1 sequence: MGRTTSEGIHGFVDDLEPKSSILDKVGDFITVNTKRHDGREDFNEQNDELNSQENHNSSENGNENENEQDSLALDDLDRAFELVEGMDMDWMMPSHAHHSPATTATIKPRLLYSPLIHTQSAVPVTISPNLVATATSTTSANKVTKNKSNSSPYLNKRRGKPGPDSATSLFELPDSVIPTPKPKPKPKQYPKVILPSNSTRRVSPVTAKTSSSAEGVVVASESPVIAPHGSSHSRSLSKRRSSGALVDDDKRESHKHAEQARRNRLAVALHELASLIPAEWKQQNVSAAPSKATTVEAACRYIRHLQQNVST
In words: relative binding free energy (BET-seq); higher = weaker binding. Conditions: reference: library average.
For TTGGCCACGTGAGCGT, the “relative binding free energy” value was found to be 0.14 kcal/mol.

On to GATACCACGTGGGTGT, for which the “relative binding free energy” value is -0.26 kcal/mol.

With GGGGTCACGTGGGTCT, the “relative binding free energy” value was found to be 0.17 kcal/mol.

Take AATAACACGTGTTGAT: the “relative binding free energy” value was -0.11 kcal/mol.

In the case of ATTGGCACGTGATGCT, the “relative binding free energy” value is -0.15 kcal/mol.

For TTGCTCACGTGGTTTG, the “relative binding free energy” value was found to be 0.11 kcal/mol.

As for GAAGTCACGTGTGTGA, the “relative binding free energy” value stood at 0.12 kcal/mol.

For the sequence GGCGCCACGTGTGGGT, the “relative binding free energy” value was determined as 0.03 kcal/mol.

With TGGAACACGTGGTCGG, the “relative binding free energy” value was found to be 0.04 kcal/mol.

Regarding TCTTGCACGTGCTGTA, the “relative binding free energy” value is -0.06 kcal/mol.

As to TTAGGCACGTGCGAAG, the “relative binding free energy” value is -0.09 kcal/mol.

Turning to GGACTCACGTGGATTG, the “relative binding free energy” value was 0.36 kcal/mol.

With TAGTGCACGTGGCTAT, the “relative binding free energy” value was -0.14 kcal/mol.

For TAGTTCACGTGAGTTG, the “relative binding free energy” value was found to be 0.44 kcal/mol.

With ATTAGCACGTGTGCAG, the “relative binding free energy” value is -0.12 kcal/mol.

As to CTAGGCACGTGATTTG, the “relative binding free energy” value is -0.11 kcal/mol.

Turning to ACGCACACGTGGGGGG, the “relative binding free energy” value is -0.29 kcal/mol.

Turning to AGATGCACGTGATGGG, the “relative binding free energy” value stood at 0.05 kcal/mol.

For the sequence GGCGCCACGTGTTGGT, the “relative binding free energy” value was -0.09 kcal/mol.

For the sequence CTATTCACGTGAAGTT, the “relative binding free energy” value is 0.29 kcal/mol.

Regarding ATTTTCACGTGTAAGG, the “relative binding free energy” value stood at 0.23 kcal/mol.

For TAGAGCACGTGTGTTT, the “relative binding free energy” value was -0.06 kcal/mol.

With CATTGCACGTGTGGGG, the “relative binding free energy” value was determined as 0.05 kcal/mol.

For AAGAGCACGTGTTTTT, the “relative binding free energy” value is -0.11 kcal/mol.

For the sequence GTGTTCACGTGACGTT, the “relative binding free energy” value was found to be 0.23 kcal/mol.

Regarding GTTGGCACGTGTCTCG, the “relative binding free energy” value was -0.07 kcal/mol.

With TGATACACGTGAAGTA, the “relative binding free energy” value stood at 0.22 kcal/mol.

With TGGGTCACGTGAGGTC, the “relative binding free energy” value turned out to be 0.28 kcal/mol.

AATTGCACGTGTGACA: the “relative binding free energy” value amounted to 0.19 kcal/mol.

GGAGTCACGTGGAAGA: the “relative binding free energy” value stood at 0.19 kcal/mol.

In the case of TGATACACGTGTGGGA, the “relative binding free energy” value worked out at 0.16 kcal/mol.

TATTTCACGTGGGTCT: the “relative binding free energy” value came out at 0.21 kcal/mol.

Regarding CTAAACACGTGGTGGG, the “relative binding free energy” value is -0.12 kcal/mol.

For CTATACACGTGTTTAT, the “relative binding free energy” value turned out to be 0.09 kcal/mol.

As to TGTTTCACGTGTTGGG, the “relative binding free energy” value turned out to be 0.33 kcal/mol.

Turning to TGCTCCACGTGGTGGG, the “relative binding free energy” value is -0.12 kcal/mol.

Regarding AGGGACACGTGGTACG, the “relative binding free energy” value is -0.18 kcal/mol.

In the case of CGTGACACGTGTGGTA, the “relative binding free energy” value is -0.04 kcal/mol.

In the case of GGCATCACGTGATTGT, the “relative binding free energy” value was determined as 0.27 kcal/mol.

Take TCAATCACGTGGTGGG: the “relative binding free energy” value amounted to 0.16 kcal/mol.

For ATCATCACGTGGGTTT, the “relative binding free energy” value is -0.08 kcal/mol.

Turning to TGATGCACGTGGTGCA, the “relative binding free energy” value was -0.11 kcal/mol.

In the case of CGATTCACGTGAGTGG, the “relative binding free energy” value came out at 0.28 kcal/mol.

For CGGTTCACGTGGTTTT, the “relative binding free energy” value came to 0.34 kcal/mol.

As to GGGTTCACGTGTTGCG, the “relative binding free energy” value was found to be 0.28 kcal/mol.

Turning to TGTCGCACGTGGCGTT, the “relative binding free energy” value was -0.24 kcal/mol.

As to CGGGACACGTGATTGT, the “relative binding free energy” value worked out at 0.14 kcal/mol.

Turning to ACTAGCACGTGGTGTT, the “relative binding free energy” value was -0.1 kcal/mol.

Consider AATATCACGTGTGTTT, for which the “relative binding free energy” value turned out to be 0.04 kcal/mol.

On to ATGTGCACGTGAGAGT, for which the “relative binding free energy” value is 0.23 kcal/mol.

Turning to AGTTGCACGTGATGGT, the “relative binding free energy” value came out at 0.17 kcal/mol.

In the case of TTGCGCACGTGGTTGG, the “relative binding free energy” value was -0.11 kcal/mol.

GAAATCACGTGGTAGT: the “relative binding free energy” value was 0.2 kcal/mol.

As for TGGGCCACGTGGCGGC, the “relative binding free energy” value is -0.17 kcal/mol.

For the sequence TTTAACACGTGGAGTA, the “relative binding free energy” value stood at 0.1 kcal/mol.

Turning to ATGAACACGTGGTGTA, the “relative binding free energy” value was -0.15 kcal/mol.

In the case of AGTGTCACGTGAGGAC, the “relative binding free energy” value turned out to be 0.26 kcal/mol.

Consider AGATCCACGTGATGGT, for which the “relative binding free energy” value came to 0.12 kcal/mol.

For TGGCACACGTGCGTGG, the “relative binding free energy” value is -0.12 kcal/mol.

On to CGTGTCACGTGGTAAT, for which the “relative binding free energy” value is 0.16 kcal/mol.

With ATTGGCACGTGATCTT, the “relative binding free energy” value was -0.09 kcal/mol.

With ATAATCACGTGAGGGT, the “relative binding free energy” value was 0.46 kcal/mol.

With GGGGACACGTGGTTGG, the “relative binding free energy” value is 0.12 kcal/mol.

As for GGAGGCACGTGTATTT, the “relative binding free energy” value is 0.05 kcal/mol.

In the case of TGGCGCACGTGCTTTA, the “relative binding free energy” value is -0.09 kcal/mol.

As for GGAGGCACGTGAGTCG, the “relative binding free energy” value is 0.14 kcal/mol.

GGGATCACGTGGAGTC: the “relative binding free energy” value came out at 0.15 kcal/mol.

In the case of CTATACACGTGAGGGG, the “relative binding free energy” value stood at 0.22 kcal/mol.

In the case of GGATTCACGTGGGGGA, the “relative binding free energy” value was 0.32 kcal/mol.

Take ATACGCACGTGGTGTG: the “relative binding free energy” value was -0.35 kcal/mol.

For the sequence ATGGGCACGTGAACTG, the “relative binding free energy” value is 0.1 kcal/mol.

Consider CGGGTCACGTGGCCGG, for which the “relative binding free energy” value came out at 0.11 kcal/mol.

CGGTCCACGTGGGTGG: the “relative binding free energy” value is -0.24 kcal/mol.

As for TTAGGCACGTGCTATT, the “relative binding free energy” value was -0.04 kcal/mol.

Regarding GTAAACACGTGGTGTT, the “relative binding free energy” value was -0.11 kcal/mol.

Take TTATACACGTGACGTT: the “relative binding free energy” value is 0.06 kcal/mol.

Take TGTTTCACGTGCTTAG: the “relative binding free energy” value turned out to be 0.2 kcal/mol.

With AGGTACACGTGCGTTT, the “relative binding free energy” value was determined as 0 kcal/mol.

For TACGGCACGTGTTGGT, the “relative binding free energy” value was -0.01 kcal/mol.

For the sequence CGGTTCACGTGGGTGT, the “relative binding free energy” value turned out to be 0.16 kcal/mol.

As for GGGGGCACGTGTTGAG, the “relative binding free energy” value is 0 kcal/mol.

On to GGGGACACGTGGATGT, for which the “relative binding free energy” value was found to be 0.07 kcal/mol.

AGTGGCACGTGGGCAA: the “relative binding free energy” value is -0.25 kcal/mol.

TGGGTCACGTGTGCGC: the “relative binding free energy” value worked out at 0 kcal/mol.

With AGAGTCACGTGTGGAG, the “relative binding free energy” value stood at 0.18 kcal/mol.

Consider CAAGACACGTGGTTGT, for which the “relative binding free energy” value is -0.03 kcal/mol.

Take GGTGGCACGTGCAGCG: the “relative binding free energy” value was -0.05 kcal/mol.

Regarding GGAGTCACGTGGATGC, the “relative binding free energy” value was 0.19 kcal/mol.

On to TATCGCACGTGTGTAG, for which the “relative binding free energy” value is -0.05 kcal/mol.

Consider CAAGGCACGTGGGGCG, for which the “relative binding free energy” value is -0.34 kcal/mol.

Turning to GCTTTCACGTGTTGTG, the “relative binding free energy” value is 0.27 kcal/mol.

Take CAATTCACGTGGAGGG: the “relative binding free energy” value is 0.22 kcal/mol.

As for GGCTACACGTGTGATG, the “relative binding free energy” value was found to be 0.36 kcal/mol.

AGTTTCACGTGGTTCA: the “relative binding free energy” value came out at 0.3 kcal/mol.

Turning to GTTTTCACGTGGGTAG, the “relative binding free energy” value was 0.3 kcal/mol.

Take TTGGTCACGTGTTGTC: the “relative binding free energy” value turned out to be 0.15 kcal/mol.

Consider GGAAACACGTGTGTGG, for which the “relative binding free energy” value stood at 0.05 kcal/mol.

On to ATGGTCACGTGCGGCT, for which the “relative binding free energy” value was found to be 0.02 kcal/mol.

For CGTTACACGTGTAGGA, the “relative binding free energy” value came out at 0.18 kcal/mol.

For the sequence TAATACACGTGGTGCT, the “relative binding free energy” value was -0.06 kcal/mol.

GTCTGCACGTGGTAAG: the “relative binding free energy” value is 0.03 kcal/mol.

Regarding TCTGGCACGTGGGTCT, the “relative binding free energy” value was -0.18 kcal/mol.

Consider TGGTTCACGTGAGACT, for which the “relative binding free energy” value was 0.37 kcal/mol.

Consider TCGGTCACGTGTGGGC, for which the “relative binding free energy” value stood at 0.23 kcal/mol.

On to GTGTTCACGTGAATAT, for which the “relative binding free energy” value came out at 0.32 kcal/mol.

In the case of TTAGGCACGTGAGCTG, the “relative binding free energy” value is 0.1 kcal/mol.

Regarding GTGTACACGTGCTTAG, the “relative binding free energy” value is -0.02 kcal/mol.

As to ATTGCCACGTGGGGCA, the “relative binding free energy” value was -0.17 kcal/mol.

Take TGATTCACGTGATCGT: the “relative binding free energy” value came to 0.28 kcal/mol.

TATGGCACGTGGTAGA: the “relative binding free energy” value is -0.11 kcal/mol.

On to TGTGGCACGTGCACAG, for which the “relative binding free energy” value is -0.04 kcal/mol.

As for GTGTTCACGTGTCTAT, the “relative binding free energy” value worked out at 0.29 kcal/mol.

As to TGGAACACGTGACGTT, the “relative binding free energy” value was 0.14 kcal/mol.

With AGCGTCACGTGGAGGC, the “relative binding free energy” value came out at 0.02 kcal/mol.

TAGAACACGTGGGGCG: the “relative binding free energy” value is -0.15 kcal/mol.
